Data on 63 compounds can be found in PubChem BioAssay AID1508642 (National Center for Advancing Translational Sciences (NCATS), 2021).

The campaign covered roughly 43,000 compounds. About 200 (0.47%) were called active. Inconclusive results (about 12%) are left out. Calls come from the whole dose curve; as a rule, active = well fitted cell-killing curve with a large enough effect; inconclusive = small, poorly fitted or top-dose-only effect, or effect the other way; inactive = flat fitted curve, though single readings scatter. Some of the results follow.
% is set by controls: 0 for no effect and ±100 for the full control effect.

The nature of this assay: Cell viability qHTS assay in S16 Pmp22-F2sN cells. Note: nearly all actives have a fitted effect of over 65% in size. Conditions: S16 Pmp22-F2sN Schwann cells viability, CellTiter-Glo, 24 h; series mostly up to 57.5 µM; activity change, negative = cytotoxicity: at the top concentration. In short, it runs like this: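 Viability was measured by CellTiter-Glo luminescence (15 min, room temperature). This followed 24 h at 37 °C of compound exposure (23 nL pin transfer) in S16 Pmp22-F2sN Schwann cells, 500-1,000 per well.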
(In qHTS, concentration-response curves come from the screen itself.)
Turning to `Cc1ccc(CSC2=NC(C)(C)Nc3ccccc32)c(C)c1`, the “activity change, negative = cytotoxicity” value was inactive: -13%.

As to `Fc1cccc(CN2CCc3nc(Nc4ccc5c(c4)OCCO5)ncc3C2)c1F`, the “activity change, negative = cytotoxicity” value is inactive: -0.255%.

`Cc1c(NC(=O)Cc2ccc(Cl)cc2)cccc1-c1nc2cccnc2s1`: the “activity change, negative = cytotoxicity” value was inactive: -14.4%.

For the compound `CCOC(=O)c1c(C)[nH]c(C)c1S(=O)(=O)NCC(=O)Nc1cccc(Cl)c1`, the “activity change, negative = cytotoxicity” value was inactive: 19.3%.

`Cc1ccc(-n2ncc(C(=O)N3CCN(c4ccccc4F)CC3)c2C2CCN(C(=O)OC(C)(C)C)CC2)cc1C`: the “activity change, negative = cytotoxicity” value was inactive: 13.7%.

Regarding `CSc1ncc(Cl)c(C(=O)Nc2c(C(=O)c3ccc(Cl)cc3)oc3ccccc23)n1`, the “activity change, negative = cytotoxicity” value is inactive: -4.45%.

In the case of `Cc1cccc(OC(=O)CSc2nnc(-c3cccs3)o2)c1C`, the “activity change, negative = cytotoxicity” value was inactive: 22.3%.

Consider `CCOC(=O)c1c(S(=O)(=O)N2CCCC(C(=O)Nc3cccc(CC)c3)C2)c(C)n(CC)c1C` (stereo not drawn), for which the “activity change, negative = cytotoxicity” value was inactive: -12.8%.

For the compound `O=C(CSc1nc(Nc2ccccc2)c2ccccc2n1)c1ccc(Cl)cc1`, the “activity change, negative = cytotoxicity” value is inactive: 5.41%.

As to `Cc1ccccc1Nc1c(-c2c[nH]c3ccccc23)nc2ccc(Cl)cn12`, the “activity change, negative = cytotoxicity” value was inactive: -18%.

As to `Cc1cc(C)cc(NC(=O)NCc2c(-n3cccc3)sc3c2CCCC3)c1`, the “activity change, negative = cytotoxicity” value was inactive: 26.6%.

On to `Cc1cccc(CNC(=O)Cn2nc(C)c3nn(-c4ccc(Cl)cc4)c(C)c3c2=O)c1`, for which the “activity change, negative = cytotoxicity” value is inactive: -6.71%.

With `Cc1c(CNC2CCCCCC2)c(C(=O)O)c(C)n1Cc1cccc(Cl)c1`, the “activity change, negative = cytotoxicity” value was inactive: 3.55%.

For the compound `CCOc1ccc(CNC(=O)c2cc3c(=O)oc4ccc(C)cc4c3s2)cc1`, the “activity change, negative = cytotoxicity” value is inactive: -5.62%.

On to `COc1ccc(C2C(C(=O)Nc3ccccc3)=C(C)Nc3nc(-c4ccc(Cl)cc4)nn32)cc1` (stereo not drawn), for which the “activity change, negative = cytotoxicity” value was inactive: 4.42%.

Regarding `Cc1ccc(NC(=O)CSCc2cc(=O)c3ccccc3[nH]2)c(C)c1`, the “activity change, negative = cytotoxicity” value is inactive: -10.4%.

Consider `Cc1ccccc1CNCCCSc1nnnn1C`, for which the “activity change, negative = cytotoxicity” value was inactive: 1.25%.

For `COc1ccc(CNC(=O)C2CCN(S(=O)(=O)c3cccc(-c4noc(C)n4)c3)CC2)cc1`, the “activity change, negative = cytotoxicity” value is inactive: -0.759%.

As to `Cc1cccc(Cn2c(CN3CCC(C(=O)NC(C)C)CC3)cc3ccccc32)c1`, the “activity change, negative = cytotoxicity” value was inactive: -9.65%.

`Cc1cccc(Nc2nc(-c3ccccc3)nc3ccccc23)c1`: the “activity change, negative = cytotoxicity” value is inactive: -9.81%.

Take `COc1ccc(Cn2c(CO)cnc2SCc2ccccc2)cc1`: the “activity change, negative = cytotoxicity” value is inactive: -4.77%.

Consider `O=C(COCc1cc(-c2ccc(F)cc2)on1)Nc1cccc(C(F)(F)F)c1`, for which the “activity change, negative = cytotoxicity” value is inactive: 4.28%.

On to `CCCOc1ccc(C2C(=O)N(C3CCCCC3)CC(=O)N2C2CCCCC2)cc1OC` (stereo not drawn), for which the “activity change, negative = cytotoxicity” value is inactive: -3.19%.

As to `Cc1ccc(-n2c(=O)c3c(C)c(C(=O)N(C)C)sc3n(Cc3ccccc3C)c2=O)cc1C`, the “activity change, negative = cytotoxicity” value was inactive: 1.36%.

Consider `O=S(=O)(c1ccccc1)n1nc(-c2ccco2)nc1NCc1ccccc1`, for which the “activity change, negative = cytotoxicity” value was inactive: 5.86%.

Take `CCc1nnc(NC(=O)c2nc(SCc3cccc(C)c3)ncc2Cl)s1`: the “activity change, negative = cytotoxicity” value is inactive: -0.914%.

`CCOc1ccc(-c2cn3c(n2)sc2cc(C(=O)NC(C)C45CC6CC(CC(C6)C4)C5)ccc23)cc1` (stereo not drawn): the “activity change, negative = cytotoxicity” value was inactive: -0.191%.

On to `CC1CCN(C(=O)Cn2cc(SCC(=O)NCc3ccccc3)c3ccccc32)CC1`, for which the “activity change, negative = cytotoxicity” value was inactive: -11.4%.

For `CCOc1ccc(C(c2c(O)cc(C)n(Cc3ccco3)c2=O)N2CCN(C)CC2)cc1` (stereo not drawn), the “activity change, negative = cytotoxicity” value is inactive: 9.88%.

For the compound `COc1cccc(N2CC(NC(=O)/C=C\c3ccccc3)CC2=O)c1` (stereo not drawn), the “activity change, negative = cytotoxicity” value is inactive: 0.142%.

Take `O=C(CSc1nc2c([nH]c3ccccc32)c(=O)n1-c1ccccc1F)Nc1cccc(Cl)c1`: the “activity change, negative = cytotoxicity” value was inactive: -25.1%.

As for `CC(Nc1oc(-c2ccc(COc3ccccc3)o2)nc1C#N)c1ccccc1` (stereo not drawn), the “activity change, negative = cytotoxicity” value was inactive: -7.71%.

As for `Cc1cccc(-n2ncc3c(NCCOCCO)ncnc32)c1`, the “activity change, negative = cytotoxicity” value was inactive: 2.05%.

Turning to `COc1ccc(-c2cn3c(n2)sc2cc(C(=O)NCCc4ccccc4)ccc23)cc1`, the “activity change, negative = cytotoxicity” value was inactive: 0.62%.

As for `COc1ccccc1/C=C/c1nc(C#N)c(NCc2ccccc2)o1`, the “activity change, negative = cytotoxicity” value was inactive: -0.41%.

For `Cc1ccc(C)c(NC(=O)c2cnc(N3CCCC3)nc2C)c1`, the “activity change, negative = cytotoxicity” value is inactive: 0.593%.

Take `O=C(OCc1cc(=O)n2nc(C3CC3)sc2n1)c1cccc(NC(=O)c2ccccc2Cl)c1`: the “activity change, negative = cytotoxicity” value was inactive: 8.02%.

`Cc1cc(C)cc(NC(=O)NCc2noc3ccccc23)c1`: the “activity change, negative = cytotoxicity” value is inactive: 5.16%.

With `CCC(=O)N1CCCc2cc(S(=O)(=O)N3CCC(C(=O)NC4CCC(C)CC4)CC3)ccc21` (stereo not drawn), the “activity change, negative = cytotoxicity” value is inactive: -27.6%.

With `O=C(Cc1ccc(Cl)cc1)NC1CC(=O)N(c2ccc3c(c2)OCCO3)C1` (stereo not drawn), the “activity change, negative = cytotoxicity” value is inactive: -0.598%.

Turning to `COc1ccc(-n2ncc(C(=O)NCc3cccs3)c2C2CCN(C(=O)OC(C)(C)C)CC2)cc1`, the “activity change, negative = cytotoxicity” value is inactive: -5.24%.

With `Cc1cccc(CNC(=O)C2CCN(c3nn4cc(-c5ccc(F)cc5)nc4s3)CC2)c1`, the “activity change, negative = cytotoxicity” value is inactive: 7.14%.

In the case of `CCc1ccccc1N(CC)C(=O)c1cc2c(s1)-c1ccccc1SC2`, the “activity change, negative = cytotoxicity” value is inactive: -4.13%.

For `Cn1c(SCc2ccc(F)cc2)nc2ccc(C(=O)NCc3cccc(Cl)c3)cc21`, the “activity change, negative = cytotoxicity” value is inactive: -12.2%.

As to `CCOc1ccccc1C(=O)NCc1ccc2c(c1)CCN2C(=O)c1ccc(F)cc1`, the “activity change, negative = cytotoxicity” value is inactive: -2.64%.

For `COc1ccc2c(CNC3CCC(C)CC3)c(C(=O)O)n(Cc3ccc(F)cc3)c2c1` (stereo not drawn), the “activity change, negative = cytotoxicity” value is inactive: 1.62%.

Turning to `COc1cccc(OCCSc2nc3ccccc3n2CC(=O)N2CCOCC2)c1`, the “activity change, negative = cytotoxicity” value was inactive: 26.2%.

With `Cc1ccc(N(Cc2cccs2)C(=O)c2ccc(OC(C)C)cc2)cc1`, the “activity change, negative = cytotoxicity” value is inactive: -1.98%.

On to `Cc1cc(=O)n2nc(N3CCC(C(=O)Nc4ccc(Br)c(C)c4)CC3)sc2n1`, for which the “activity change, negative = cytotoxicity” value was inactive: 1.35%.

Turning to `COCCNC(=O)c1ccc(Cn2c(SCC(N)=O)nc3ccccc3c2=O)cc1`, the “activity change, negative = cytotoxicity” value was inactive: -0.659%.

For the compound `COc1ccc(C2CC(=O)Nc3c2c(C)nn3-c2nncc(-c3ccccc3)n2)c(OC)c1OC` (stereo not drawn), the “activity change, negative = cytotoxicity” value is inactive: -0.317%.

Take `COc1cc2nc(NCCc3cccc(C)c3)n3nc(-c4ccccc4)nc3c2cc1OC`: the “activity change, negative = cytotoxicity” value was inactive: 23.5%.

Regarding `CCOC(=O)c1cccc(NC(=O)COc2ccc3c(C)cc(=O)oc3c2)c1`, the “activity change, negative = cytotoxicity” value is inactive: 9.29%.

As for `COc1ccc(-c2noc(CN(C(=O)c3ccc(C)cc3C)C(C)C)n2)cc1`, the “activity change, negative = cytotoxicity” value was inactive: 6.46%.

With `CCOC(=O)c1ccccc1NC(=O)CSc1ccc(-c2sc(C)nc2C)nn1`, the “activity change, negative = cytotoxicity” value is inactive: -9.14%.

As to `Cc1ccc(C(=O)NCCc2csc(-c3cccc(F)c3)n2)cc1C`, the “activity change, negative = cytotoxicity” value was inactive: 9.08%.

In the case of `CCc1ccc(CNC(=O)CN2C(=O)C3CCCCN3c3ccc(C(=O)N4CCCC4)cc32)cc1` (stereo not drawn), the “activity change, negative = cytotoxicity” value is inactive: 12.6%.

As for `CC1CCN(S(=O)(=O)c2ccc3c(c2)N(C)C(=O)CC(=O)N3C)CC1`, the “activity change, negative = cytotoxicity” value is inactive: 3.45%.

For `Cc1ccc(-c2nnc(SCc3ccccc3)o2)cc1`, the “activity change, negative = cytotoxicity” value is inactive: 1.37%.

For the compound `COc1cccc(NC(=O)C(C)n2c(=O)cc(C(F)(F)F)c3c(C)nn(C)c32)c1` (stereo not drawn), the “activity change, negative = cytotoxicity” value is inactive: -4.78%.

Regarding `CCCNC(=O)CN1C(=O)COc2ccc(S(=O)(=O)N3CCCCCC3)cc21`, the “activity change, negative = cytotoxicity” value was inactive: 3.04%.

Take `CCN(CC)C(=O)Cn1c(SCC(=O)Nc2ccc(F)cc2)nc2ccccc21`: the “activity change, negative = cytotoxicity” value is inactive: -2.11%.

For `CCOc1ccccc1NC(=O)Cn1c(=O)nc(-c2ccccc2F)c2cc(Cl)ccc21`, the “activity change, negative = cytotoxicity” value is inactive: 3.42%.
